# Assay results as given in the supplement of paper PMC12217912.
# The other results are listed elsewhere or left out. Sequences were assembled here from the parent chain. Values near 0.05 are background.
# B1: TEV protease; numbered along this chain (parent)
# chain: MGESLFKGPRDYNPISSSICHLTNESDGHTTSLYGIGFGPFIITNKHLFRRNNGTLVVQSLHGVFKVKDTTTLQQHLVDGRDMIIIRMPKDFPPFPQKLKFREPQREERICLVTTNFQTKSMSSMVSDTSCTFPSGDGIFWKHWIQTKDGQCGSPLVSTRDGFIVGIHSASNFTNTNNYFTSVPKNFMELLTNQEAQQWVSGWRLNADSVLWGGHKVFMVKPEEPFQPVKEATQL
# Variants of: B1
# Test: raw area under fraction-flipped curve 0-4 h after induction (AUC4h, not background-subtracted), DNA-recorder readout of cleavage of the substrate (dimensionless); higher = more cleavage of the substrate by the protease variant
# Conditions: temperature: 34 °C; time window: 0-4 h after rhamnose induction
# 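Also: Bxb1 expression induced with 0.2% (w/v) L-rhamnose at OD600 near 0.5, cultures sampled hourly, flipped fraction per protease–substrate barcode pair counted by paired-end Illumina sequencing.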
Variant,area with substrate ENLYFQC,area with substrate ENLYFQD,area with substrate ENLYFQF,area with substrate ENLYFQH,area with substrate ENLYFQI,area with substrate ENLYFQK,area with substrate ENLYFQL,area with substrate ENLYFQM,area with substrate ENLYFQP,area with substrate ENLYFQR,area with substrate ENLYFQS,area with substrate ENLYFQT,area with substrate ENLYFQV,area with substrate ENLYFQW,area with substrate ENLYFQY,area with substrate ENLYFQE,area with substrate ENLYFQG,area with substrate ENLYFQN,area with substrate ENLYFQQ
MGESLFKGPRDYNPISSSICHLTNESDGHTTSLYGIGFGPFIITNKHLFRRNNGTLVVQKLHGVFKVKDTTTLQQHLVDGRDMIIIRMPKDFPPFPQKLKFREPQREERICLVTTNFQTKSMSSMVSDTSCTFPSGDGIFWKHWIQTKDGQCGSPLVSTRDGFIVGIHSASNFTNTNNYFTSVPKNFMELLTNQEAQQWVSGWRLNADSVLWGGHKVFMVKPEEPFQPVKEATQL [S60K],0.0976,0.0624,0.0582,0.0648,0.0528,0.0608,0.0477,0.0586,0.0469,0.0586,0.0868,0.0459,0.0513,0.0523,0.0738,,,,
MGESLFKGPRDYNPISSSICHLTNESWGHTTSLYGIGFGPFIITNKHLFRRNNGTLVVQSLHGVFKVKDTTTLQQHLVDGRDMIIIRMPKDFPPFPQKLKFREPQREERICLVTTNFQTKSMSSMVSDTSCTFPSGDGIFWKHWIQTKDGQCGSPLVSTRDGFIVGIHSASNFTNTNNYFTSVPKNFMELLTNQEAQQWVSGWRLNADSVLWGGHKVFMVKPEEPFQPVKEATQL [D27W],0.0765,0.0523,0.021,0.0855,0.0558,,0.0594,0.0715,0.0476,0.0605,0.0903,0.0613,0.057,0.066,0.0708,0.0605,0.0968,0.0768,0.0651
MGESLFKGPRDYNPISSSICHLTNESDGHTTSLYGSGFGPFIITNKHLFRRNNGTLVVQSLHGVFKVKDTTTLQQHLVDGRDMIIIRMPKDFPPFPQKLKFREPQREERICLVTTNFQTKSMSSMVSDTSCTFPSGDGIFWKHWIQTKDGQCGSPLVSTRDGFIVGIHSASNFTNTNNYFTSVPKNFMELLTNQEAQQWVSGWRLNADSVLWGGHKVFMVKPEEPFQPVKEATQL [I36S],0.0731,0.0611,0.0665,0.05,0.0816,0.0509,0.044,0.0582,,0.0504,0.0678,,0.0463,,0.0318,,0.0546,0.0546,0.0348
MGESLFKGPRDYNPISSSICHLTNESDGHTTSLYGTGFGPFIITNKHLFRRNNGTLVVQSLHGVFKVKDTTTLQQHLVDGRDMIIIRMPKDFPPFPQKLKFREPQREERICLVTTNFQTKSMSSMVSDTSCTFPSGDGIFWKHWIQTKDGQCGSPLVSTRDGFIVGIHSASNFTNTNNYFTSVPKNFMELLTNQEAQQWVSGWRLNADSVLWGGHKVFMVKPEEPFQPVKEATQL [I36T],0.0805,,,,0.056,0.0525,0.0621,,,0.0458,0.0887,0.0604,,0.054,0.0591,,0.0837,0.0838,
MGESLFKGPRDYNPISSSICHLTNESDGHTTSLYGMGFGPFIITNKHLFRRNNGTLVVQSLHGVFKVKDTTTLQQHLVDGRDMIIIRMPKDFPPFPQKLKFREPQREERICLVTTNFQTKSMSSMVSDTSCTFPSGDGIFWKHWIQTKDGQCGSPLVSTRDGFIVGIHSASNFTNTNNYFTSVPKNFMELLTNQEAQQWVSGWRLNADSVLWGGHKVFMVKPEEPFQPVKEATQL [I36M],0.132,0.0671,0.0454,0.0813,0.0571,0.0641,0.0672,0.0953,,0.0674,0.0987,,,,,0.0536,0.0797,,0.0726
MGESLFKGPRDYNPISSSICHLTNESDGHTTSLYGIGFGPFILTNKHLFRRNNGTLVVQSLHGVFKVKDTTTLQQHLVDGRDMIIIRMPKDFPPFPQKLKFREPQREERICLVTTNFQTKSMSSMVSDTSCTFPSGDGIFWKHWIQTKDGQCGSPLVSTRDGFIVGIHSASNFTNTNNYFTSVPKNFMELLTNQEAQQWVSGWRLNADSVLWGGHKVFMVKPEEPFQPVKEATQL [I43L],0.121,0.0526,,,,0.0597,,0.0887,0.058,0.0602,0.101,0.0726,,0.0674,0.105,,,0.0772,0.0764
MGESLFKGPRDYNPISSSICHLTNESDGHTTSLYGIGFGPFISTNKHLFRRNNGTLVVQSLHGVFKVKDTTTLQQHLVDGRDMIIIRMPKDFPPFPQKLKFREPQREERICLVTTNFQTKSMSSMVSDTSCTFPSGDGIFWKHWIQTKDGQCGSPLVSTRDGFIVGIHSASNFTNTNNYFTSVPKNFMELLTNQEAQQWVSGWRLNADSVLWGGHKVFMVKPEEPFQPVKEATQL [I43S],0.0556,0.0532,,0.0534,0.0391,0.0716,0.0492,0.0663,0.0261,0.044,0.056,0.0431,,0.0548,0.0463,0.0532,0.0489,0.0495,0.0511
MGESLFKGPRDYNPISSSICHLTNESDGHTTSLYGIGFGPFINTNKHLFRRNNGTLVVQSLHGVFKVKDTTTLQQHLVDGRDMIIIRMPKDFPPFPQKLKFREPQREERICLVTTNFQTKSMSSMVSDTSCTFPSGDGIFWKHWIQTKDGQCGSPLVSTRDGFIVGIHSASNFTNTNNYFTSVPKNFMELLTNQEAQQWVSGWRLNADSVLWGGHKVFMVKPEEPFQPVKEATQL [I43N],0.0447,0.0581,0.0478,0.0784,0.0414,0.0439,0.0501,0.039,0.0567,0.0477,0.0471,0.0397,,0.0485,,,,,
MGESLFKGPRDYNPISSSICHLTNESDGHTASLYGIGFGPFIITNKHLFRRNNGTLVVQSLHGVFKVKDTTTLQQHLVDGRDMIIIRMPKDFPPFPQKLKFREPQREERICLVTTNFQTKSMSSMVSDTSCTFPSGDGIFWKHWIQTKDGQCGSPLVSTRDGFIVGIHSASNFTNTNNYFTSVPKNFMELLTNQEAQQWVSGWRLNADSVLWGGHKVFMVKPEEPFQPVKEATQL [T31A],0.122,,0.106,0.0934,0.0535,0.0551,0.102,,,0.0441,0.103,,,0.0472,,,,,
